Some of the results follow. Each Rep nickase domain was tested in vitro on the same pool of single strands (1 h at 37 °C, 3 µM enzyme); the outer parts of the 90-letter strands are left off. Uncut reads are compared with the no-enzyme pool on a log2 scale; the lower, the more was cut; hits are not called. Shares of all reads are compared; uncut strands gain when others are lost, and binding without cutting may add a little.
Key:
Assay in all cases: uncleaved DNA left, log2 of reads against the no-enzyme library (log2 ratio); higher = less cleavage (more negative = more Rep cleavage of the k-mer); sequences stand for … in CTCGTCCG…ACCGGAGA
[1] = test system: T1, Rep nickase domain of Muscovy duck circovirus
T1 sequence (residues 1-111 of Rep, tag left off): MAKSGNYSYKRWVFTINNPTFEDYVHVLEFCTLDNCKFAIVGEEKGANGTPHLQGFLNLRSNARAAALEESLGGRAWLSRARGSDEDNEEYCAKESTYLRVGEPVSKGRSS
Experimental: (§1)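 A pool of 90-nt single-stranded DNAs with seven random bases just before the constant AC of the nick site (name = the seven bases) was cut by 3 µM recombinant His6-SUMO-tagged Rep nickase domain (300 nM DNA, 50 mM HEPES pH 8.0, 50 mM NaCl, 1 mM MnCl2, 1 h, 37 °C, three replicates). Uncut DNA was amplified and sequenced.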

[2] = test system: T2, Rep nickase domain of banana bunchy top virus
T2 sequence (residues 1-94 of Rep, tag left off): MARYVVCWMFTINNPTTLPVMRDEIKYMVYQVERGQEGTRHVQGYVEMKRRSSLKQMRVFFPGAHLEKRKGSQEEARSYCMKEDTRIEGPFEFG
Experimental: as §1

[3] = test system: T3, Rep nickase domain of cabbage leaf curl virus
T3 sequence (residues 1-116 of Rep, tag left off): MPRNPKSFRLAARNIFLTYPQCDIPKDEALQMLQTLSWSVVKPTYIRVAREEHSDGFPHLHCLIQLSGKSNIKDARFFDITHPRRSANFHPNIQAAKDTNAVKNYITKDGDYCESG
Experimental: as §1

[4] = test system: T4, Rep nickase domain of chickpea chlorotic dwarf virus
T4 sequence (residues 1-124 of Rep, tag left off): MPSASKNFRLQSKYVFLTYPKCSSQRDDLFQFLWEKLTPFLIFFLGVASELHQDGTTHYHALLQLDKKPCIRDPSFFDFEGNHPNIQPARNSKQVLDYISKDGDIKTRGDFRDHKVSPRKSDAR
Experimental: as §1

[5] = test system: T5, Rep nickase domain of faba bean necrotic yellows virus
T5 sequence (residues 1-98 of Rep, tag left off): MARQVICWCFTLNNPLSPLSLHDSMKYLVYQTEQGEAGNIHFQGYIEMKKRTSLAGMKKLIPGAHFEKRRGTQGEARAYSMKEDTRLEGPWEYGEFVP
Experimental: as §1

[6] = test system: T6, Rep nickase domain of maize striate mosaic virus
T6 sequence (residues 1-117 of Rep, tag left off): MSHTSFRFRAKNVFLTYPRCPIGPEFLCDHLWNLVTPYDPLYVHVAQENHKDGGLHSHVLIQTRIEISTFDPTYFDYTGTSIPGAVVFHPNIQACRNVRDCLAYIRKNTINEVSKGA
Experimental: as §1

[7] = test system: T7, Rep nickase domain of porcine circovirus 2
T7 sequence (residues 2-116 of Rep, tag left off): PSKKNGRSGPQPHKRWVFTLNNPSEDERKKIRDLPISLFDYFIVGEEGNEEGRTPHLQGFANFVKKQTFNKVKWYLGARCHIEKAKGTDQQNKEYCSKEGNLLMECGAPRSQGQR
Experimental: as §1

[8] = test system: T8, Rep nickase domain of tomato golden mosaic virus
T8 sequence (residues 1-124 of Rep, tag left off): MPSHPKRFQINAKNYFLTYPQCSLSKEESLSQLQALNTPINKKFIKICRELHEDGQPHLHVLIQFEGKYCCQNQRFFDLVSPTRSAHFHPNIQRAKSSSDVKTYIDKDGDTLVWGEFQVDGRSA
Experimental: as §1

[9] = test system: T9, Rep nickase domain of tomato yellow leaf curl virus
T9 sequence (residues 1-136 of Rep, tag left off): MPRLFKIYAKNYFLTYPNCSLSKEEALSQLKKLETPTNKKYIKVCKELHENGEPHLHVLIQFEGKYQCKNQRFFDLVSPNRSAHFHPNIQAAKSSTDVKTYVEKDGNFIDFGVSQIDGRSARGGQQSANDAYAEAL
Experimental: as §1

[10] = test system: T10, Rep nickase domain of wheat dwarf virus
T10 sequence (residues 1-137 of Rep, tag left off): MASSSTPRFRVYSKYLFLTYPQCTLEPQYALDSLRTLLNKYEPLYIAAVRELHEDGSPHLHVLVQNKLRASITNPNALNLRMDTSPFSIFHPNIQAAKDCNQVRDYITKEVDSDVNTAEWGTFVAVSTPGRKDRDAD
Experimental: as §1

| Sequence | uncleaved DNA left (log2) [1] | uncleaved DNA left (log2) [2] | uncleaved DNA left (log2) [3] | uncleaved DNA left (log2) [4] | uncleaved DNA left (log2) [5] | uncleaved DNA left (log2) [6] | uncleaved DNA left (log2) [7] | uncleaved DNA left (log2) [8] | uncleaved DNA left (log2) [9] | uncleaved DNA left (log2) [10] |
| --- | --- | --- | --- | --- | --- | --- | --- | --- | --- | --- |
| GGTGGTC | 0.029 | 0.0261 | 0.569 | 1.22 | -0.0737 | 1.91 | 0.1 | -0.0439 | -0.0329 | 0.0501 |
| GAATTCG | 0.0132 | 0.0245 | -0.768 | 0.249 | 0.0268 | -0.69 | 0.0671 | -0.105 | 0.0862 | -0.104 |
| CGTCCTT | -0.0512 | 0.0951 | 0.166 | -1.19 | 0.0194 | 0.134 | -0.328 | -0.165 | 0.155 | 0.0478 |
| TTGCCTT | -0.137 | 0.00516 | -0.415 | -1.75 | 0.15 | -0.793 | -1.52 | 0.00294 | 0.0598 | 0.0821 |
| ATCGTAT | -0.00404 | -0.0577 | -0.0185 | -0.324 | 0.0257 | -0.231 | -0.0137 | 0.0458 | 0.102 | -0.000492 |
| CGTTCTG | -0.133 | -0.2 | -0.155 | 0.375 | -0.0237 | 1.12 | -0.122 | -0.101 | -0.084 | -0.00508 |
| TACGAGT | 0.0812 | 0.0206 | 0.0167 | -0.399 | -0.0434 | -0.0153 | -0.134 | -0.0285 | -0.0164 | -0.0873 |
| CAAGGGG | 0.0867 | 0.0652 | 0.22 | 0.595 | 0.0583 | 0.127 | 0.259 | 0.0993 | 0.0495 | 0.154 |
| CCCTAGT | -1.45 | 0.00836 | -0.267 | -1.06 | -0.00542 | -0.994 | -3.28 | 0.119 | 0.0373 | 0.0409 |
| CTAATTA | -0.0359 | 0.0663 | -0.00304 | -1.29 | -0.000125 | -0.682 | -0.154 | 0.00794 | 0.0193 | 0.152 |
| TCACTTA | 0.0548 | -0.042 | 0.0011 | -1.32 | -0.119 | -0.464 | -0.162 | -0.0338 | 0.0848 | 0.00294 |
| CACTTTC | -0.143 | -0.0426 | -0.0591 | -0.691 | -0.0364 | -0.854 | -1.23 | -0.0423 | 0.0142 | 0.0174 |
| CCTCTCC | -0.078 | -0.0499 | -0.00117 | 0.00835 | -0.00956 | 0.845 | 0.0341 | -0.136 | -0.111 | -0.129 |
| AAGGGAG | -0.013 | 0.052 | -0.113 | 0.342 | 0.0993 | -0.569 | 0.253 | 0.221 | 0.0346 | 0.0992 |
| ACAGCAG | -0.026 | 0.00253 | -0.685 | 0.0786 | 0.0145 | -0.587 | 0.237 | 0.0251 | 0.00547 | -0.0215 |
| AATCATT | -0.99 | -0.243 | -1.43 | -2.45 | -0.148 | -0.579 | -3.19 | -0.22 | -0.09 | -0.268 |
| CTGGTAT | 0.0456 | -0.00803 | 0.21 | 0.775 | -0.0328 | 1.38 | 0.0452 | 0.00446 | -0.131 | -0.108 |
| ATGTACT | -3.5 | -2.49 | -0.344 | -2.94 | -2.95 | -0.598 | -3.71 | -0.11 | 0.118 | -0.0976 |
| TCGCAGT | 0.119 | -0.0551 | 0.0492 | -0.308 | 0.171 | -0.745 | -0.0578 | -0.00221 | 0.159 | -0.0177 |
| TAGTGCT | -3.13 | -3.35 | -2.91 | -3.05 | -2.99 | -1.9 | -4.07 | -0.738 | 0.0575 | -0.286 |
| GAAGCAC | 0.0287 | 0.0238 | 0.122 | 0.545 | 0.152 | 0.275 | 0.119 | 0.121 | 0.0977 | 0.103 |
| CGGTCAG | -0.0672 | 0.0704 | 0.262 | 1.27 | -0.000205 | 1.09 | 0.0677 | 0.0495 | -0.0284 | 0.00386 |
| AGGGTAG | 0.223 | 0.0661 | -0.185 | 0.0808 | 0.11 | -0.629 | 0.322 | 0.137 | 0.189 | 0.06 |
| CCAGTGC | -0.0717 | 0.0831 | -0.611 | -0.0938 | 0.065 | -0.888 | 0.11 | -0.0577 | 0.178 | -0.0198 |
| TGAGCTT | 0.0209 | -0.148 | 0.147 | -0.704 | -0.0741 | 0.69 | -0.133 | 0.00294 | 0.00094 | -0.139 |
| TCCTCAT | 0.0545 | -0.206 | 0.158 | -0.356 | -0.0442 | -0.0368 | -0.694 | -0.024 | 0.0732 | -0.095 |
| AGAGTTC | 0.0193 | -0.112 | 0.154 | -0.706 | -0.0635 | -0.0748 | -0.77 | 0.0176 | 0.036 | -0.0177 |
| CGGGAGG | 0.0265 | -0.047 | 0.413 | 0.842 | -0.174 | 0.739 | -0.0493 | -0.0201 | -0.15 | -0.227 |
| GCCCCCA | -0.153 | 0.0264 | 0.257 | -0.0344 | -0.0187 | 0.373 | -0.0971 | -0.0749 | -0.116 | -0.0409 |
| TGAATAG | 0.101 | 0.202 | -0.619 | -0.351 | 0.224 | -1.08 | 0.304 | 0.176 | 0.235 | 0.051 |

Reference: the supplement of paper PMC7826260
